Here are results for 88 sequences from the supplement of paper PMC11417369.

± gives the standard deviation of the averaged measurements. Some of the results follow.

The experiment has as its system PfAP2-EXP AP2 domain (GST-tagged). Briefly: gcPBM binding intensity (ln(normalized median fluorescence intensity)); higher = stronger DNA binding. An outline of the steps: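 Binding intensity is the highest Masliner-normalised natural-log median intensity over replicate spots in either probe orientation. To obtain it, GST-tagged P. falciparum DNA-binding domains made in E. coli were incubated for 1 h on an Agilent 4 × 180k array of primer-extended double-stranded 36-bp intergenic genomic probes plus negative controls. Detection used Alexa488 anti-GST antibody with scanning at 488 nm.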
As to “ATAAAATATAGGTATGCACACACATATACTTCTGTG [CACACA_site8398]”, the “gcPBM binding intensity (ln)” value came out at 8.53 ± 0.3. For “GATATATGTATAATAACGCACACTACAAAAATAAAA [CACACA_site2100]” the value was 8.77 ± 0.31; for “AATAAAGAAGAAGAAAGTACACATTTCACAAAGGGG [XGTACX_site1308]”, 8.94 ± 0.42. For “TATATAATACGAATTTGTACATATTAAATAAATTAT [XGTACX_site93]” the value was 8.41 ± 0.37; for “GTTAGTTTTAGTTCATGTACATAATAGAAAATATAT [XGTACX_site7125]”, 8.64 ± 0.25; for “AAAAAAAAAAACGACAGTACAATTATAATTTATATT [XGTACX_site2365]”, 8.55 ± 0.54. On to “AGAGTTAAACGATATATATAAATATATATATATATA [GTGCAC_negctrl_site316]”, for which the “gcPBM binding intensity (ln)” value was determined as 9.87 ± 0.33. Under “AGATCATAATATTATACACACATTAGATATAGGTAA [CACACA_site6809]” stands 8.54 ± 0.36; under “ATGTCTTAAAAATTAAAACACACGTTCACTTTCATA [CACACA_site3385]”, 8.49 ± 0.38. For “ATATTAATGATATATACACACATAAGTATTGTATAT [CACACA_site7844]” the value was 8.18 ± 0.43; for “AAATGTAATTTGTCTTTTATTTATATTTGACATGAT [TGCATGCA_negctrl_site520]”, 8.04 ± 0.43. For “TTTTTTTTTTTTTTTTTTTTTTTGCTCAGTGTGGTA [CACACA_negctrl_site29]” the value was 7.97 ± 0.43; for “TTGATGGGAAAAAACTTTTTTTTCTTTTTTTCTTTC [CACACA_negctrl_site328]”, 8.04 ± 0.5.

On to “AAAAATTATAAAAAACAAATATTAAATAATTATTAA [GTGCAC_negctrl_site125]”, for which the “gcPBM binding intensity (ln)” value stood at 8.24 ± 0.35. For “AAAAGGAAGATATATACACACATACAAATATTTATA [CACACA_site7093]” the value was 8.74 ± 0.4; for “TATCACCCACCATGAAGTACATATTACCATTTGATG [XGTACX_site845]”, 8.78 ± 0.71; for “ATAAATAAATAAAAGCGTACATATATATAAAATATA [XGTACX_site8107]”, 8.63 ± 0.27. Under “TTATACTAAATGAACACACACACATATATATATATA [CACACA_site99]” stands 10 ± 0.5; under “AATTAAATGTTTCTAAGATATACGACCAATGTATTT [CACACA_negctrl_site1694]”, 8.24 ± 0.49. In the case of “AATTAATGGGTACATACACACATATATACATACATA [CACACA_site742]”, the “gcPBM binding intensity (ln)” value came to 8.44 ± 0.41. “CATCAATGCTAATTATGTACTTACATAAATAACCCT [XGTACX_site968]”: the “gcPBM binding intensity (ln)” value stood at 8.44 ± 0.31.

“ATACCTAAAAAATATACACACATATATATAAATATA [CACACA_site2580]”: the “gcPBM binding intensity (ln)” value was found to be 8.29 ± 0.41. As to “TGTATTATCTCTTATGAACACACATTTTTATTTTCA [CACACA_site9107]”, the “gcPBM binding intensity (ln)” value was found to be 8.66 ± 0.29. Under ATGTTAATTAATGAGGTGCATTGAATATTTCAATAA stands 8.63 ± 0.042; under “AGAAGAAAACAAAACACACACATATATCTTAATATA [CACACA_site2231]”, 8.64 ± 0.54. Under “AAAAAAAAAAACTTTGCATGTAATAATAAAAAAAAA [TGCATGCA_site81]” stands 8.8 ± 0.26; under “TGGTGAAAAATATAAATATAAATAAATATATATATA [CACACA_negctrl_site1725]”, 9.62 ± 0.16; under ATGATCTGTTTGTTTGTGCACATATATATATATTAA, 9.37 ± 0.23. For “AAATAAATTGAAGATACATGCATATTTTTTTTTTAT [TGCATGCA_site686]” the value was 8.41 ± 0.35; for “GAATATTTATGATGAACTATTAATTAATTTTACATA [GTGCAC_negctrl_site353]”, 8.09 ± 0.39; for “TATATATTACATAAAACACACAAAAAAAAAATTAAA [CACACA_site3882]”, 8.51 ± 0.62.

On to “TTTATATTTTTTTTTGCACACTTTAAAAAAATATAT [CACACA_site1146]”, for which the “gcPBM binding intensity (ln)” value came to 8.89 ± 0.24.

For “ATGTAGAGTAATAGTTGTACAAGGTGTATATCTCAT [XGTACX_site6370]”, the “gcPBM binding intensity (ln)” value turned out to be 9.03 ± 0.46. As for “ACATTATATTTGGACTGTACTAATATATTGTTATAT [XGTACX_site5573]”, the “gcPBM binding intensity (ln)” value is 8.47 ± 0.32. For “ATATATATATATATATGTACATATTGTATCTTATAC [XGTACX_site5466]” the value was 10.2 ± 0.4; for “TATACATATATATATTGTACATATTATATATATATA [XGTACX_site3286]”, 9.655 ± 0.064; for “TATAAATACGAACACACACACCTTATAATTACTACT [CACACA_site7827]”, 8.71 ± 0.69. “TTATATTTAGTATATGCACACTTTATGTTTGTTATT [CACACA_site5163]”: the “gcPBM binding intensity (ln)” value is 8.71 ± 0.28. For “AAGAAAGGTTAAACATGTACATAAATATTTTACATA [XGTACX_site5024]” the value was 8.5 ± 0.099; for “AAAAACCATTGGCACACACACATAATATATAATATA [CACACA_site4903]”, 8.66 ± 0.61; for “TCATTGAAAATTGTTGCACACATAATAATTAAATAT [CACACA_site8554]”, 8.61.

In the case of “ACACATATGTCTTCATGTACATAATATATAAATCTT [XGTACX_site3438]”, the “gcPBM binding intensity (ln)” value came out at 8.87 ± 0.46.

Turning to “CATAAATCAGCCATAACACACATACATATATACATA [CACACA_site8025]”, the “gcPBM binding intensity (ln)” value is 8.52 ± 0.45. For “TATCTTTTTATTTTTTATTTTTTTTTTATAATTTAC [XGTACX_negctrl_site414]”, the “gcPBM binding intensity (ln)” value came to 8.53 ± 0.45. Consider “TAAAGGTAGATATATTGTACATACACACCTATATAA [XGTACX_site6865]”, for which the “gcPBM binding intensity (ln)” value is 8.33 ± 0.3. Under “TATATATATACAGTTGCATGTTGTGTTTAAAATTTT [TGCATGCA_site816]” stands 9.575 ± 0.035.

Take “TGTTAAAAAATGGATGCACACATTAAATAAAAAGTA [CACACA_site1660]”: the “gcPBM binding intensity (ln)” value is 8.79 ± 0.28.

With “TCTTGTTTATCAACAGCACACACAACAACAACAACA [CACACA_site8046]”, the “gcPBM binding intensity (ln)” value is 8.96 ± 0.35. Under “TTAATTAAAACGAATACACACATAAATATGTAAAAG [CACACA_site6707]” stands 8.63 ± 0.3; under “ATATGTATAAGTATGTATATTTATTTATACTTATGT [GTGCAC_negctrl_site221]”, 8.2 ± 0.37; under “TATATATATATATAATGTACTTATATTTTTTTGAGG [XGTACX_site2638]”, 10.1 ± 0.21. Under “AAAAAAAAAAAAAAAAGTACATATATATATTTATAT [XGTACX_site5893]” stands 8.45 ± 0.085; under “TTATATTTATAAAATTGTATACCCCTTCTAACTTTC [CACACA_negctrl_site250]”, 8.51 ± 0.44; under “ATTGTGCTCATCAGCACACACAACATCATGTAATAA [CACACA_site1863]”, 8.6 ± 0.28.

Consider “TATATATATGGTTTAACACACGAGATAAAAGTATAT [CACACA_site2867]”, for which the “gcPBM binding intensity (ln)” value is 8.68 ± 0.24. For “TTCTATTCACATTTTACACACGTCCATCGCATTTTA [CACACA_site3453]” the value was 9.13 ± 0.47; for “TTTTAAATTTAATTTACACACTTTTCATAGCATTGA [CACACA_site3794]”, 8.39 ± 0.38.

With “TATATGGTATGTATTACACACATATCACATATAGAT [CACACA_site7426]”, the “gcPBM binding intensity (ln)” value is 8.28 ± 0.32. Under “AGCCATATCTTTTTTGCACACACTACAATAAAACAA [CACACA_site1650]” stands 8.8 ± 0.39; under “AATGTAAAAGTAAACACACACATATATTTATACATA [CACACA_site7218]”, 8.71 ± 0.32; under “CATATGGCAATAATTACATGCAAAAAAAAAAAAAAA [TGCATGCA_site578]”, 8.59 ± 0.34. Under “ACATTTAATGTTATATGTACATAATATTATAAGTAT [XGTACX_site1393]” stands 8.93 ± 0.41; under “AAAAAAAAGAAAAACACACACATATATATATATAAT [CACACA_site4707]”, 8.61 ± 0.52. Turning to “GTAAATCGACACATACGTACATACATTTATATATAT [XGTACX_site3143]”, the “gcPBM binding intensity (ln)” value worked out at 8.93 ± 0.33. For “ACAGACGTTCAAAGGTGTACGCAAAATGAATAATAT [XGTACX_site7565]” the value was 8.93 ± 0.32. For “TTCTTATTTAATGTATCACACACGAGAATAAAAAAT [CACACA_site8992]” the value was 8.64 ± 0.4; for “TTTCATGACAATGTTTGTACATAATAAAATATATTT [XGTACX_site7039]”, 8.52 ± 0.29; for “TAAACAGACATATAAACACACATACATACATACATA [CACACA_site7215]”, 8.71 ± 0.47. For the sequence “TTAAAAAGATGTCACTGTACATAAAACATAAAATAT [XGTACX_site2886]”, the “gcPBM binding intensity (ln)” value came to 8.82 ± 0.4. For “AAAAAAAAAAAAAAAACACACATAAAACTATAATAA [CACACA_site7758]” the value was 8.53 ± 0.34.

As for “GAAGAGACTTAGAAAACACACATACATAAGATAATT [CACACA_site5333]”, the “gcPBM binding intensity (ln)” value is 8.71 ± 0.45. For “ATATGTATCTCATCGTGTACATGTATATAATATATA [XGTACX_site4139]” the value was 8.66 ± 0.38; for “ATATATCAAAATAATTGTACAAATTTTATATAATTT [XGTACX_site7249]”, 8.37 ± 0.3. For “TTAGAAAAATTATATATACACACTTATATTTATATA [CACACA_site2821]” the value was 7.91 ± 0.38. For “ATATAGTAAAGTTATACACACATGAATTTTCCCATG [CACACA_site6923]” the value was 8.48 ± 0.32; for “AATATAAATGTGATTACACACAACACATTTAAATGT [CACACA_site1212]”, 8.49 ± 0.4.

Regarding “GTCATATATAATTGTTGTACATTTTTATAATTATGT [XGTACX_site8091]”, the “gcPBM binding intensity (ln)” value turned out to be 8.86 ± 0.36. For “AATTTTCTTAAAATTTGTACGTATATATTTAATATA [XGTACX_site3906]” the value was 8.45 ± 0.32; for “TATATATACTATAACACACATACACCCAAAAAAAAA [CACACA_site536]”, 8.73 ± 0.48.

As to “AAAAAATTATATTATGCACACATCGTTATATATATA [CACACA_site1201]”, the “gcPBM binding intensity (ln)” value came to 8.92 ± 0.099. For “CTTATACATATATATAGTACATATATCATTTTTATG [XGTACX_site4462]” the value was 8.62 ± 0.3; for “GAATAAATAAGATACGTACACACATATACAAAATAT [CACACA_site3660]”, 8.86 ± 0.31. For “AAAAATAAATTTATATATTACAAGAACAAATATAGT [XGTACX_negctrl_site567]” the value was 8.79 ± 0.42. Under “TTTTTTTAAAAAAAGGGTACATATATATATTTTTCT [XGTACX_site1066]” stands 8.53 ± 0.4; under “AAAAGGAAAGGAAAGGGTACAATCCTATTATATTAT [XGTACX_site8652]”, 8.49 ± 0.34; under “ATAATATAAACGTATACACACAAGAGAAGCATAAAG [CACACA_site2889]”, 9.15 ± 0.59. Consider “GTATTACATGAGGACACACACAAAAAAAATATATAT [CACACA_site769]”, for which the “gcPBM binding intensity (ln)” value turned out to be 8.96 ± 0.49.

With “TTATTATAAAAATGTAGTACAATACTTTTTTTTTTT [XGTACX_site732]”, the “gcPBM binding intensity (ln)” value was 8.05 ± 0.31.
